No constants are given. Whether binding was seen depends on the method and setting. For some of these results: Binding seen in cells or lysates may run through a third protein. Some binding calls cover weakened binding; strength is not graded here. For some of these results: Where a sequence is shown, tags or fusion partners need not be part of it.
T1: Tsc1 (hamartin) (human (endogenous in HEK293)) (UniProt Q92574)
T1 sequence: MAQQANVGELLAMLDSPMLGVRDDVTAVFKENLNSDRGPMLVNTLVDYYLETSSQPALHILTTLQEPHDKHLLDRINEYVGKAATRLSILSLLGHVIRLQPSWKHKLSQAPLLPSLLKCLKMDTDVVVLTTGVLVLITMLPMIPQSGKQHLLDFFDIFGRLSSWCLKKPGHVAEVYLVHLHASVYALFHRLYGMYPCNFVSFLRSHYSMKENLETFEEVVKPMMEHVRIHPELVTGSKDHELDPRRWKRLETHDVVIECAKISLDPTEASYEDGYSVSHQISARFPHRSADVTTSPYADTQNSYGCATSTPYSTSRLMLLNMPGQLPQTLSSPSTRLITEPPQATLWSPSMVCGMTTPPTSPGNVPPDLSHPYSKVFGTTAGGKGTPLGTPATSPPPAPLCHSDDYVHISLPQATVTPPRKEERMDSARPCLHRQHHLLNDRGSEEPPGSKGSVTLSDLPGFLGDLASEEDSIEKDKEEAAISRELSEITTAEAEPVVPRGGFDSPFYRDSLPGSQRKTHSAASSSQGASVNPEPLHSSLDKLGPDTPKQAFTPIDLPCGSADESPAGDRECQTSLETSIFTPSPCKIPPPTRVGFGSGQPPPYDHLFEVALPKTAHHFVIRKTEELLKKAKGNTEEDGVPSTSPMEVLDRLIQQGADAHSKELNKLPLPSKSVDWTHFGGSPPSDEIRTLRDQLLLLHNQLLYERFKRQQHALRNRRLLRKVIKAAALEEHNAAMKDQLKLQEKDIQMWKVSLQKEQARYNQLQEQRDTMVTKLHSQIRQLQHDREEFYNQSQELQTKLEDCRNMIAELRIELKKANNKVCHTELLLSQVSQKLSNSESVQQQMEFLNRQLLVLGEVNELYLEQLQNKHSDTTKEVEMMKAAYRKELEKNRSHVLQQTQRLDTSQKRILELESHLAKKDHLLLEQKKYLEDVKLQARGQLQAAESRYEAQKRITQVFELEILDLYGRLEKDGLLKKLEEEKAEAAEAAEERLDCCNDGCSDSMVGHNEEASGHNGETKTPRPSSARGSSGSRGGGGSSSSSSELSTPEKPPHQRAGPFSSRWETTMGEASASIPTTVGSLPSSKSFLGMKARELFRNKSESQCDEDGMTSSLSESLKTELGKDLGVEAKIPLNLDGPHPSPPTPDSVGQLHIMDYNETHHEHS

Protein sequences, listed by entry. Tags and fused reporters are not part of them.
UniProt P49815: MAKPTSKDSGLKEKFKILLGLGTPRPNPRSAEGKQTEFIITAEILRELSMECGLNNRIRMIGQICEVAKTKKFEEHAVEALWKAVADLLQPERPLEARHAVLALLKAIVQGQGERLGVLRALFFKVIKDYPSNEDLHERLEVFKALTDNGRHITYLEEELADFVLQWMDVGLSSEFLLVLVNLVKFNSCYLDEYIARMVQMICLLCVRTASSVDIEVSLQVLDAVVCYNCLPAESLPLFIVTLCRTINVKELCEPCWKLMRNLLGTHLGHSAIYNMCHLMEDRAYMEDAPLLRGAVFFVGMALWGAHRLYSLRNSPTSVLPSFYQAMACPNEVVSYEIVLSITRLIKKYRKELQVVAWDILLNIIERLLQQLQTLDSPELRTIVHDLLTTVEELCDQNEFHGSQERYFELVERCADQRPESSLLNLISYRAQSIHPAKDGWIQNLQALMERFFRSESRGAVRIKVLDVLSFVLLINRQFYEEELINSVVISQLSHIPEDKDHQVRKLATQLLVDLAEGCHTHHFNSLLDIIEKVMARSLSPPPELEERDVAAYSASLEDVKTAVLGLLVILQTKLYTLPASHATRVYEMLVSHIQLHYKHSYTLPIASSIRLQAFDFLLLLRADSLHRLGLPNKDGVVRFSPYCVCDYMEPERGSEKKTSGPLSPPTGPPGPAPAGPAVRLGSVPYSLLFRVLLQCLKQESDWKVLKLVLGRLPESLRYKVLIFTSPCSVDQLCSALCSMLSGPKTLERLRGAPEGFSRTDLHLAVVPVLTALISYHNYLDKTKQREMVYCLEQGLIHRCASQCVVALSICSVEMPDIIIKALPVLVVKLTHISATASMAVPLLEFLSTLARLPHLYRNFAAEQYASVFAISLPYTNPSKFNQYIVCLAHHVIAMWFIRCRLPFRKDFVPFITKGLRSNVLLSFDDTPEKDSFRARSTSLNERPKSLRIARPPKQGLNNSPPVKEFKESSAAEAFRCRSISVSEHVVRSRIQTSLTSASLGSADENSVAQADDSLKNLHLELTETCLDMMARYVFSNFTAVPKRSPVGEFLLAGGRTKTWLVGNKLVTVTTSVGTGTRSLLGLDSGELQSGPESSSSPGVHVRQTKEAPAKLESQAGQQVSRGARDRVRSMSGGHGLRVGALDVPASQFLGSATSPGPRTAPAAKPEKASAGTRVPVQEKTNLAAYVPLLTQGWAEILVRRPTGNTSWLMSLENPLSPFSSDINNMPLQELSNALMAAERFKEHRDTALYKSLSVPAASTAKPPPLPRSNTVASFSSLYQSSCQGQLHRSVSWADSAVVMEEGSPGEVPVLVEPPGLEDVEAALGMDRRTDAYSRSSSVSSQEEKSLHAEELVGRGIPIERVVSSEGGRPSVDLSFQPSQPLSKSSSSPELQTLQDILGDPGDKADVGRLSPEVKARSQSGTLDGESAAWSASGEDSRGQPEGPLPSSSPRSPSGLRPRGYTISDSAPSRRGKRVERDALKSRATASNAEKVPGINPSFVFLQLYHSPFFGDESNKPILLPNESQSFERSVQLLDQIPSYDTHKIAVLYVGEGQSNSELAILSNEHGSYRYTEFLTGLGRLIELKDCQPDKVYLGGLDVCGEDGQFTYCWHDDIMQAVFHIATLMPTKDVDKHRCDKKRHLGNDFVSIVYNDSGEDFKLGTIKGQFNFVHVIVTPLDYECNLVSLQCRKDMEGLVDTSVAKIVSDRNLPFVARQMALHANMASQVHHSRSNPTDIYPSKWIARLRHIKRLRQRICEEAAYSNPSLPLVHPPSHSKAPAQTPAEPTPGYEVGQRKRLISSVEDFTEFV
UniProt P08238: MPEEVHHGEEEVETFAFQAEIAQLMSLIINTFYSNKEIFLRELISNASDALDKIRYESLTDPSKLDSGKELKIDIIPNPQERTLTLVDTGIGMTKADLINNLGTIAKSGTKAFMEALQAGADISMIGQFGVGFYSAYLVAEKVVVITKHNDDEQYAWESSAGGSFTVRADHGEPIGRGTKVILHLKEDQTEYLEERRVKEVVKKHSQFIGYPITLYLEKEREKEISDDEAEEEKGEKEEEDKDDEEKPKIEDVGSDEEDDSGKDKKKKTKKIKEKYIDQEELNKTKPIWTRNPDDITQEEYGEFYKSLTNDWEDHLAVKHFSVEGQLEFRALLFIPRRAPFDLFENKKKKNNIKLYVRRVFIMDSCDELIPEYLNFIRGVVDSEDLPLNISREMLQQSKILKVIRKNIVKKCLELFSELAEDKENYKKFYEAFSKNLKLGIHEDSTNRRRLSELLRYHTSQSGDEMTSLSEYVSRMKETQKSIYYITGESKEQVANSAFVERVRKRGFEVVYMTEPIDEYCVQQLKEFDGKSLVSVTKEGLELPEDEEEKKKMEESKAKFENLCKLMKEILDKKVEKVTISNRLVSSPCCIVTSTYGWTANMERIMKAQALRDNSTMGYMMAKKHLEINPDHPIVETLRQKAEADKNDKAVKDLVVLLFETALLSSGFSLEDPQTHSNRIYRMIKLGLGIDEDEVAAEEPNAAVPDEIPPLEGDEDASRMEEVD

T2: Tsc1-D-FLAG (UniProt Q92574)
T2 sequence: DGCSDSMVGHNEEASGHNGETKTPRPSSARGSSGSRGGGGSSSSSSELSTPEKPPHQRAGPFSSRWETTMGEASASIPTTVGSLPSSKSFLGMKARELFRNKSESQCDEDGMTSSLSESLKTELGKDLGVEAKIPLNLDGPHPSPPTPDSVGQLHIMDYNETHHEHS

B1: Cdc37^p50 (protein, UniProt Q16543 1-378)
chain: MVDYSVWDHIEVSDDEDETHPNIDTASLFRWRHQARVERMEQFQKEKEELDRGCRECKRKVAECQRKLKELEVAEGGKAELERLQAEAQQLRKEERSWEQKLEEMRKKEKSMPWNVDTLSKDGFSKSMVNTKPEKTEEDSEEVREQKHKTFVEKYEKQIKHFGMLRRWDDSQKYLSDNVHLVCEETANYLVIWCIDLEVEEKCALMEQVAHQTIVMQFILELAKSLKVDPRACFRQFFTKIKTADRQYMEGFNDELEAFKERVRGRAKLRIEKAMKEYEEEERKKRLGPGGLDPVEVYESLPEELQKCFDVKDVQMLQDAISKMDPTDAKYHMQRCIDSGLWVPNSKASEAKEGEEAGPGDPLLEAVPKTGDEKDVSV
B2: Tsc1 (hamartin) (protein, UniProt Q92574 1-1164)
chain: MAQQANVGELLAMLDSPMLGVRDDVTAVFKENLNSDRGPMLVNTLVDYYLETSSQPALHILTTLQEPHDKHLLDRINEYVGKAATRLSILSLLGHVIRLQPSWKHKLSQAPLLPSLLKCLKMDTDVVVLTTGVLVLITMLPMIPQSGKQHLLDFFDIFGRLSSWCLKKPGHVAEVYLVHLHASVYALFHRLYGMYPCNFVSFLRSHYSMKENLETFEEVVKPMMEHVRIHPELVTGSKDHELDPRRWKRLETHDVVIECAKISLDPTEASYEDGYSVSHQISARFPHRSADVTTSPYADTQNSYGCATSTPYSTSRLMLLNMPGQLPQTLSSPSTRLITEPPQATLWSPSMVCGMTTPPTSPGNVPPDLSHPYSKVFGTTAGGKGTPLGTPATSPPPAPLCHSDDYVHISLPQATVTPPRKEERMDSARPCLHRQHHLLNDRGSEEPPGSKGSVTLSDLPGFLGDLASEEDSIEKDKEEAAISRELSEITTAEAEPVVPRGGFDSPFYRDSLPGSQRKTHSAASSSQGASVNPEPLHSSLDKLGPDTPKQAFTPIDLPCGSADESPAGDRECQTSLETSIFTPSPCKIPPPTRVGFGSGQPPPYDHLFEVALPKTAHHFVIRKTEELLKKAKGNTEEDGVPSTSPMEVLDRLIQQGADAHSKELNKLPLPSKSVDWTHFGGSPPSDEIRTLRDQLLLLHNQLLYERFKRQQHALRNRRLLRKVIKAAALEEHNAAMKDQLKLQEKDIQMWKVSLQKEQARYNQLQEQRDTMVTKLHSQIRQLQHDREEFYNQSQELQTKLEDCRNMIAELRIELKKANNKVCHTELLLSQVSQKLSNSESVQQQMEFLNRQLLVLGEVNELYLEQLQNKHSDTTKEVEMMKAAYRKELEKNRSHVLQQTQRLDTSQKRILELESHLAKKDHLLLEQKKYLEDVKLQARGQLQAAESRYEAQKRITQVFELEILDLYGRLEKDGLLKKLEEEKAEAAEAAEERLDCCNDGCSDSMVGHNEEASGHNGETKTPRPSSARGSSGSRGGGGSSSSSSELSTPEKPPHQRAGPFSSRWETTMGEASASIPTTVGSLPSSKSFLGMKARELFRNKSESQCDEDGMTSSLSESLKTELGKDLGVEAKIPLNLDGPHPSPPTPDSVGQLHIMDYNETHHEHS
B3: Tsc1-D-HA (domain or fragment, UniProt Q92574 998-1164)
chain: DGCSDSMVGHNEEASGHNGETKTPRPSSARGSSGSRGGGGSSSSSSELSTPEKPPHQRAGPFSSRWETTMGEASASIPTTVGSLPSSKSFLGMKARELFRNKSESQCDEDGMTSSLSESLKTELGKDLGVEAKIPLNLDGPHPSPPTPDSVGQLHIMDYNETHHEHS
B4: pure Tsc1 (protein, UniProt Q92574 1-1164)
chain: MAQQANVGELLAMLDSPMLGVRDDVTAVFKENLNSDRGPMLVNTLVDYYLETSSQPALHILTTLQEPHDKHLLDRINEYVGKAATRLSILSLLGHVIRLQPSWKHKLSQAPLLPSLLKCLKMDTDVVVLTTGVLVLITMLPMIPQSGKQHLLDFFDIFGRLSSWCLKKPGHVAEVYLVHLHASVYALFHRLYGMYPCNFVSFLRSHYSMKENLETFEEVVKPMMEHVRIHPELVTGSKDHELDPRRWKRLETHDVVIECAKISLDPTEASYEDGYSVSHQISARFPHRSADVTTSPYADTQNSYGCATSTPYSTSRLMLLNMPGQLPQTLSSPSTRLITEPPQATLWSPSMVCGMTTPPTSPGNVPPDLSHPYSKVFGTTAGGKGTPLGTPATSPPPAPLCHSDDYVHISLPQATVTPPRKEERMDSARPCLHRQHHLLNDRGSEEPPGSKGSVTLSDLPGFLGDLASEEDSIEKDKEEAAISRELSEITTAEAEPVVPRGGFDSPFYRDSLPGSQRKTHSAASSSQGASVNPEPLHSSLDKLGPDTPKQAFTPIDLPCGSADESPAGDRECQTSLETSIFTPSPCKIPPPTRVGFGSGQPPPYDHLFEVALPKTAHHFVIRKTEELLKKAKGNTEEDGVPSTSPMEVLDRLIQQGADAHSKELNKLPLPSKSVDWTHFGGSPPSDEIRTLRDQLLLLHNQLLYERFKRQQHALRNRRLLRKVIKAAALEEHNAAMKDQLKLQEKDIQMWKVSLQKEQARYNQLQEQRDTMVTKLHSQIRQLQHDREEFYNQSQELQTKLEDCRNMIAELRIELKKANNKVCHTELLLSQVSQKLSNSESVQQQMEFLNRQLLVLGEVNELYLEQLQNKHSDTTKEVEMMKAAYRKELEKNRSHVLQQTQRLDTSQKRILELESHLAKKDHLLLEQKKYLEDVKLQARGQLQAAESRYEAQKRITQVFELEILDLYGRLEKDGLLKKLEEEKAEAAEAAEERLDCCNDGCSDSMVGHNEEASGHNGETKTPRPSSARGSSGSRGGGGSSSSSSELSTPEKPPHQRAGPFSSRWETTMGEASASIPTTVGSLPSSKSFLGMKARELFRNKSESQCDEDGMTSSLSESLKTELGKDLGVEAKIPLNLDGPHPSPPTPDSVGQLHIMDYNETHHEHS
B5: PP5 (protein, UniProt P53041 1-499)
chain: MAMAEGERTECAEPPRDEPPADGALKRAEELKTQANDYFKAKDYENAIKFYSQAIELNPSNAIYYGNRSLAYLRTECYGYALGDATRAIELDKKYIKGYYRRAASNMALGKFRAALRDYETVVKVKPHDKDAKMKYQECNKIVKQKAFERAIAGDEHKRSVVDSLDIESMTIEDEYSGPKLEDGKVTISFMKELMQWYKDQKKLHRKCAYQILVQVKEVLSKLSTLVETTLKETEKITVCGDTHGQFYDLLNIFELNGLPSETNPYIFNGDFVDRGSFSVEVILTLFGFKLLYPDHFHLLRGNHETDNMNQIYGFEGEVKAKYTAQMYELFSEVFEWLPLAQCINGKVLIMHGGLFSEDGVTLDDIRKIERNRQPPDSGPMCDLLWSDPQPQNGRSISKRGVSCQFGPDVTKAFLEENNLDYIIRSHEVKAEGYEVAHGGRCVTVFSAPNYCDQMGNKASYIHLQGSDLRPQFHQFTAVPHPNVKPMAYANTLLQLGMM
B6: p23 (protein, UniProt Q15185 1-160)
chain: MQPASAKWYDRRDYVFIEFCVEDSKDVNVNFEKSKLTFSCLGGSDNFKHLNEIDLFHCIDPNDSKHKRTDRSILCCLRKGESGQSWPRLTKERAKLNWLSVDFNNWKDWEDDSDEDMSNFDRFSEMMNNMGGDEDVDLPEVDGADDDSQDSDDEKMPDLE

Tests used:
[1] = biological target: T1, Tsc1 (hamartin) (human (endogenous in HEK293)); experiment: co-IP; endogenous Tsc1 immunoprecipitated from HEK293 lysate with anti-Tsc1 antibody (IgG control); immunoblot
[2] = biological target: Tsc2 (tuberin) (human (endogenous in HEK293)) (UniProt P49815); experiment: co-IP; endogenous Tsc2 immunoprecipitated from HEK293 lysate with anti-Tsc2 antibody (IgG control); immunoblot
[3] = biological target: Hsp90β-FLAG (UniProt P08238); experiment: co-IP; FLAG-tagged protein transiently expressed in HEK293, immunoprecipitated with anti-FLAG M2 affinity gel; endogenous partners by immunoblot; empty vector control
[4] = biological target: T2, Tsc1-D-FLAG; experiment: co-IP; FLAG-tagged protein co-expressed with HA-tagged Tsc1-D in HEK293; anti-FLAG immunoprecipitation; immunoblot
[5] = biological target: purified Tsc2 (UniProt P49815); experiment: co-IP; purified Tsc2 bound to protein G agarose by anti-Tsc2 antibody, incubated with 10 ng pure Tsc1; immunoblot; both purified
[6] = biological target: purified Tsc2 (UniProt P49815); experiment: co-IP; Tsc1:Tsc2 complex on protein G agarose (anti-Tsc2) treated with GB for 1 h at 4°C; both purified

Row | Binder | binding [1] | binding [2] | also measured
1 | B1 | binds | binds | –
2 | B2 | – | – | binding [3]: binds
3 | B3 | – | – | binding [4]: binds
4 | B4 | – | – | binding [5]: binds; binding [6]: binds
5 | B5 | binds | binds | –
6 | B6 | no binding | binds | –

Source: article PMC5730846
